Test results published in PubChem BioAssay AID624417 (National Center for Advancing Translational Sciences (NCATS), 2012).
Among all 410,000 compounds or so, about 6,400 (1.6%) were called active. This list was built around the results that the source calls inconclusive (neither active nor inactive); the mix of calls is not that of the screen. The call rests on the fitted dose curve; in most records, active means well fitted inhibition curve with a large enough effect; inconclusive means small, poorly fitted or top-dose-only effect; inactive means no such curve, though single readings can be large or run the other way. No potency is given beside an inconclusive call; the fits are too rough.

The compounds below were run against Glucagon-like peptide 1 receptor (Homo sapiens) (UniProt P43220) (assay: qHTS of GLP-1 Receptor Inverse Agonists (Inhibition Mode)). Conditions: HEK293 GLP-1R CRE-luciferase, luminescence, 24 h, GLP-1R form is constitutively active; series mostly up to 38.3 µM.
Chain of UniProt P43220 (P43220 whole entry, looked up): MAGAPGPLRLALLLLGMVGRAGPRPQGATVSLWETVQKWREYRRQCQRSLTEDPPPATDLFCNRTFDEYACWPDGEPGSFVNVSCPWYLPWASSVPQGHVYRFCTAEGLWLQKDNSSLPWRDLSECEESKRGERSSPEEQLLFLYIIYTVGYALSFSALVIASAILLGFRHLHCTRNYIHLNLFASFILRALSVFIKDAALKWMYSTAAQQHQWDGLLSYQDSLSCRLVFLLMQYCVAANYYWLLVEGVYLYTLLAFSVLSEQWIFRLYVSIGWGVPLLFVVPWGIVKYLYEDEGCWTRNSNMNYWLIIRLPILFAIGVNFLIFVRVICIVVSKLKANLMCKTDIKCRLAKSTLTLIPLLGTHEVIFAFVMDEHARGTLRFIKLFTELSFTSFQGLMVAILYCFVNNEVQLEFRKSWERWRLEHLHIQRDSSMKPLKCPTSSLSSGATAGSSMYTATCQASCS
In short: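 Seeding at 200 cells/uL, 12 h culture, 24 hr compound treatment, then luciferase reagent and a luminescence read; cells are HEK293 stably expressing a constitutively active GLP-1R plus cAMP-responsive luciferase.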
Further: nearly all actives have a fitted effect of over 55% in size.
Potency means the concentration at half of the fitted maximal effect; tags describe the fitted curve by direction and shape.

| Compound | Potency |
| --- | --- |
| CCN1CCN(c2ccc(NC(=O)c3cccc(F)c3)cc2Cl)CC1 | inconclusive [inhibitor, partial curve, poor fit] |
| COc1ccc(CCN2C(=O)N(c3ccc(C)cc3)C(=O)C2CC(=O)Nc2ccc(OC)cc2)cc1 (stereo not given) | inconclusive [inhibitor, partial curve, poor fit] |
| Cc1nn(C)c(Oc2ccccc2)c1CCNS(=O)(=O)c1ccc(Cl)cc1 | inconclusive [inhibitor, partial curve, poor fit] |
| Cc1ccsc1CN(C)C(=O)c1ccc(Oc2ccccc2)cc1 | inconclusive [inhibitor, partial curve, poor fit] |
| CCOC(=O)C1=C(C)N(C[C@@H]2CC[C@@H](Cc3ccc(-c4ccccc4)cc3)O2)C(=O)NC1c1ccc(SCc2ccco2)c([N+](=O)[O-])c1 (stereo not given in full) | inactive |
| Clc1ccc2c(NCc3cccs3)ncnc2c1 | inconclusive [inhibitor, single point] |
| O=c1cc(N2CCCCC2)c(-c2ccccc2)nn1Cc1ccccc1Cl | inconclusive [inhibitor, single point] |
| CCCCCn1c(=O)c(C(=O)c2ccccc2)nc2ccccc21 | inconclusive [inhibitor, partial curve, poor fit] |
| Cc1ccc(Cl)cc1NC(=O)CON=C(N)c1ccccc1 | inconclusive [inhibitor, single point] |
| CC(C)c1nc2oc3c(=O)[nH]cnc3c2c2c1CCC2 | inactive |
| Cc1ccc(C)c(CSc2cn(CCNC(=O)c3cccs3)c3ccccc23)c1 | inconclusive [inhibitor, single point] |
| O=C(Nc1cccc(O)c1)c1cc(-c2ccccc2F)no1 | inconclusive [inhibitor, single point] |
| CC(CNC(=O)c1csc2c1CCCCC2)c1ccccc1 (stereo not given) | inconclusive [inhibitor, single point] |
| CC(C)C(=O)Nc1cccc(NC(=S)NC(=O)c2ccc(Cl)cc2)c1 | inconclusive [inhibitor, single point] |
| COc1cc(-c2noc(C)c2C#CC2(O)CCCCC2)cc(OC)c1OC | inconclusive [inhibitor, single point] |
| COc1cccc(NC(=O)CN(C)C(=O)c2ccc(N3CCCCC3)c([N+](=O)[O-])c2)c1 | inconclusive [inhibitor, single point] |
| Cc1csc(NC(=O)c2ccc(Cn3nc(C)c(Br)c3C)o2)n1 | inconclusive [inhibitor, partial curve, poor fit] |
| CCc1ccccc1Nc1nc2ccccc2[nH]1 | inconclusive [inhibitor, partial curve, poor fit] |
| O=C(CN1CCN(S(=O)(=O)c2ccc(Br)cc2)CC1)N/N=C/c1ccc(Br)s1 | inconclusive [inhibitor, partial curve, poor fit] |
| Cc1noc(C)c1COC(=O)c1cc(F)c(F)cc1Cl | inactive |

| Compound | Potency |
| --- | --- |
| CN1CCN(C(=O)/C(=C\c2ccccc2)c2ccccc2)CC1 | inactive |
| O=C(Cc1c(F)cccc1Cl)NCC(=O)OCc1ccccc1 | inconclusive [inhibitor, single point] |
| Cc1cc(C)c2c(n1)nn1c(N3CCN(c4ccccc4C)CC3)cc(C)nc21 | inconclusive [inhibitor, partial curve] |
| Cc1ccccc1NC(=O)Cn1nnc(C(=O)NCc2cccs2)c1N | inconclusive [inhibitor, full curve] |
| CC(C)CC(=O)NC(=S)Nc1cccc(NC(=O)c2ccccc2)c1 | inconclusive [inhibitor, partial curve] |
| O=C(NC1CC1)C1=C[C@H](C2CCCCC2)C[C@H](OCc2ccc(CO)cc2)O1 | inconclusive [inhibitor, single point] |
| Fc1ccc(C[n+]2csc3ccccc32)cc1 | inconclusive [inhibitor, single point] |
| CN(Cc1cccs1)C(=O)CCNS(=O)(=O)c1ccc(Br)cc1 | inconclusive [inhibitor, partial curve, poor fit] |
| COc1ccc(-c2nc(-c3ccc(NC(=O)c4ccncc4)cc3)no2)cc1OC | inconclusive [inhibitor, full curve] |
| O=[N+]([O-])c1ccc(-c2ccc(S(=O)(=O)NCCN3CCCC3)cc2)cc1 | inconclusive [inhibitor, partial curve, poor fit] |
| CC1CCCN(CC(O)COc2ccc(S(=O)(=O)N3CCCC3)cc2[N+](=O)[O-])C1 (stereo not given) | inconclusive [inhibitor, partial curve, poor fit] |
| Cc1cc(C(=O)CN2C(=O)NC3(CCCc4sccc43)C2=O)c(C)n1-c1ccccc1 (stereo not given) | inconclusive [inhibitor, single point] |
| CCc1nn(CC(=O)NCCN2CCN(C)CC2)c(=O)c2cc3occc3n12 | inconclusive [inhibitor, full curve] |
| CCOc1ccccc1NC(=O)CCCCCN1C(=O)[C@@H]2Cc3ccccc3CN2C1=O | inconclusive [inhibitor, partial curve, poor fit] |
| CC(C)(C)C(=O)Nc1ccc2nc(SCCOc3ccccc3Cl)sc2c1 | inconclusive [inhibitor, partial curve, poor fit] |
| NC(=S)N/N=C1\CCOc2ccc(F)cc21 | inconclusive [inhibitor, single point] |
| O=C1CCCc2nc(N3CCN(C(c4ccccc4)c4ccccc4)CC3)ncc21 | inconclusive [inhibitor, single point] |
| O=C(CSc1ccccc1)NC1CCCCCC1 | inactive |
| Cc1[nH]c2ccccc2c(=O)c1CN1CCCCCC1 | inactive |
| CN1CCN(c2c(/C=N/O)c3ccccc3n2C)CC1 | inconclusive [inhibitor, partial curve] |
